Screen size: about 420,000 compounds; about 64,000 (15%) were called active. This list was built around the results that the source calls inconclusive (neither active nor inactive); the mix of calls is not that of the screen. Calls come from the whole dose curve; as a rule, active = well fitted inhibition curve with a large enough effect; inconclusive = small, poorly fitted or top-dose-only effect; inactive = flat fitted curve, though single readings scatter. No potency is given beside an inconclusive call; the fits are too rough.
Assay: qHTS for Inhibitors of human tyrosyl-DNA phosphodiesterase 1 (TDP1): qHTS in cells in absence of CPT; note: nearly all actives have a fitted effect of over 55% in size
Conditions: DT40 Tdp1-/- hTDP1 cells, no CPT, ATP luminescence, 48 h; activity change, negative = growth inhibition: at 46.2 µM (top of the series)
Method in brief: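 Growth of hTDP1-complemented DT40 Tdp1-knockout cells is measured by ATP luminescence after at least 48 hr compound exposure at 37 °C, with DMSO substituting for the 20 nM CPT used in the parallel screen.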
% is set by controls: 0 for no effect and ±100 for the full control effect; potency is the fitted concentration of half-maximal effect; tags give direction and shape of the fitted curve.

SMILES	Potency	activity change, negative = growth inhibition
CC1CCCN(C(=O)CN(c2ccccc2)S(=O)(=O)c2ccc(F)cc2)C1 (stereo not drawn)	inactive	–
COc1cc(OC)cc(C(=O)N[C@H](C(=O)NC2CCCc3ccccc32)C(C)C)c1 (stereo partly drawn)	active: 16.4 µM	–
O=C1CCCc2c1cnc1ncnn21	inactive	–
Nc1c(C(=O)Nc2ccccc2)sc2nc(N3CCOCC3)c3c(c12)CCCC3	active: 9.2 µM	–
COc1ccc(CC(=O)NCC(c2cccs2)S(=O)(=O)c2ccc(C)cc2)cc1 (stereo not drawn)	active: 25.9 µM	–
Cc1cc(NC(=O)CSc2nnc(-c3cccc(Cl)c3)o2)no1	active: 16.4 µM	–
COc1ccccc1CNc1ncnc2ccc(-c3ccc(C(=O)N(C)C)cc3)cc12	inconclusive [inhibitor, single point]	–
C=CCn1c(SCC(=O)N2CCC(C)CC2)nc2c([nH]c3ccccc32)c1=O	inconclusive [inhibitor, single point]	–
C/C=C/C(=O)OCC(=O)Nc1ccc(F)cc1Cl	inactive	–
O=C1C=C(c2ccccc2)OC2(CCCC2)O1	inactive	–
COc1cccc(NC(=O)C2(C)CCN2Cc2ccc(OC)c3ccccc23)c1 (stereo not drawn)	inactive	–
c1ccc(-c2n[nH]nc2-c2ccccc2)cc1	inconclusive [inhibitor, full curve, poor fit]	–
Cc1c(-c2nc(-c3ccc(C(F)(F)F)cc3)no2)n(C)oc1=O	inconclusive [inhibitor, partial curve, poor fit]	–
Cn1c(NCc2ccccc2)nc2c1c(=O)n(Cc1ccc(Br)cc1)c(=O)n2C	inconclusive [inhibitor, single point]	–
O=C(COc1ccc(Br)cc1F)NCC1(N2CCCCC2)CCCCC1	inconclusive [inhibitor, single point]	–
O=C1CC(Sc2ncccn2)C(=O)N1c1ccccc1 (stereo not drawn)	inconclusive [inhibitor, single point]	–
COc1ccc(/C=C/C(=O)Nc2ccc(N3CCOCC3)cc2)cc1	inconclusive [inhibitor, single point]	–
COc1cc(NC(=O)C2CCCN(c3ncnc4c3nc3n4CCCCC3)C2)cc(OC)c1OC (stereo not drawn)	inconclusive [inhibitor, single point]	–
CCOc1ccc(S(=O)(=O)N2CCN(CCNS(=O)(=O)c3ccc(C)cc3)CC2)cc1	–	inconclusive: -30.7% [inhibitor]
O=C(NCc1cccs1)c1ccc(CSc2nc3cccnc3n2Cc2ccccc2F)cc1	active: 23.1 µM	–
COc1ccc(Cl)cc1S(=O)(=O)N1CCC(C(=O)NCc2ccccn2)CC1	–	inconclusive: -31.4% [inhibitor]
COc1ccc(NC(=O)c2cccc(N3C(=O)C4CCC(C)CC4C3=O)c2)c(OC)c1 (stereo not drawn)	inconclusive [inhibitor, single point]	–
CCOc1ccccc1C(=O)N(CN1CCCC1=O)c1cccc(Cl)c1	active: 9.2 µM	–
OCCNc1ncnc2ccc(Br)cc12	active: 6.51 µM	–

SMILES	Potency	activity change, negative = growth inhibition
COc1ccc(-c2cc(C(F)(F)F)nc(S(=O)(=O)CCCC(=O)Nc3cccnc3Cl)n2)cc1OC	active: 3.66 µM	–
Cc1cccc(NC(=S)Nc2ccccn2)c1	active: 8.2 µM	–
O=c1[nH]c(C2CCN(S(=O)(=O)c3ccc(S(=O)(=O)NC4CC4)cc3)CC2)nc2c1nnn2Cc1cccc(F)c1	inconclusive [inhibitor, single point]	–
O=[N+]([O-])c1cc(S(=O)(=O)C(F)(F)F)ccc1N1CCN(c2ccccc2)CC1	active: 16.4 µM	–
CCNC(=O)COC(=O)c1cc(-c2ccco2)nc2ccccc12	inconclusive [inhibitor, single point]	–
O=C(O)C1CC=CCC1C(=O)N1CCN(c2nc(-c3ccccc3Cl)c3cc(Br)ccc3n2)CC1 (stereo not drawn)	–	inconclusive: -31.2% [inhibitor]
CC(C)(O)C1=NOC(c2ccccc2)C1 (stereo not drawn)	inactive	–
COc1ccccc1-c1cc(-c2ccc(C)cc2)nc(SCc2nnc(-c3ccccc3)o2)c1C#N	inconclusive [inhibitor, single point]	–
O=C(NCc1cccc(Cl)c1)c1ccc2nc(N3CCCCC3)sc2c1	inconclusive [inhibitor, single point]	–
COc1ccc(-c2csc3ncnc(N4CCN(S(=O)(=O)c5cccs5)CC4)c23)cc1	inconclusive [inhibitor, single point]	–
c1ccc(CNc2nc(-c3cccs3)nc3ccccc23)cc1	inconclusive [inhibitor, single point]	–
Cc1ccc(NS(=O)(=O)c2cccc(C(=O)NCC(c3ccco3)N3CCCC3)c2)cc1 (stereo not drawn)	inconclusive [inhibitor, single point]	–
CCCC(=O)NC(c1ccccc1)c1c(O)ccc2ccccc12 (stereo not drawn)	active: 8.2 µM	–
COc1ccc(OC)c(S(=O)(=O)N2CCCC2C(=O)N2CCc3ccccc3C2)c1 (stereo not drawn)	active: 23.1 µM	–
CC(C)c1ccc(C(C(C(=O)c2ccccc2)N2CCOCC2)N2CCOCC2)cc1 (stereo not drawn)	inactive	–
Clc1ccc(Cn2c(/C=C/c3ccco3)nc3ccccc32)cc1	inconclusive [inhibitor, single point]	–
Cc1oc(-c2ccccc2Cl)nc1CSc1nc2ncccc2[nH]1	inconclusive [inhibitor, single point]	–
O=C(COc1ccccc1[N+](=O)[O-])N(Cc1cccc(Br)c1)C1CCS(=O)(=O)C1 (stereo not drawn)	inconclusive [inhibitor, single point]	–
OCC(CO)c1cnnc2ccccc12	inactive	–
O=C(O)C1CCCN1S(=O)(=O)c1cc(Cl)ccc1Cl (stereo not drawn)	inactive	–
Cc1nc(-c2cccc(NS(C)(=O)=O)c2)cs1	inactive	–
CC1CCCCN1C(=O)c1ccc(S(=O)(=O)N2CCCCC2C)cc1 (stereo not drawn)	inconclusive [inhibitor, partial curve]	–
CC(C)(C)C(=O)N1CCC(O)(CS(=O)(=O)Cc2ccccc2)CC1	inactive	–
CC(C)CCOc1ccccc1C(N)=O	inconclusive [inhibitor, single point]	–

Reference: PubChem BioAssay AID686978 (National Center for Advancing Translational Sciences (NCATS), 2013)
